PubChem BioAssay AID1508623 (National Center for Advancing Translational Sciences (NCATS), 2021)
In all, about 48,000 compounds went through this assay and about 450 (0.94%) were called active. Not shown: some 19% with an inconclusive outcome. Calls follow the shape of the dose curve; as a rule, active = well fitted inhibition curve with a large enough effect; inconclusive = small, poorly fitted or top-dose-only effect; inactive = no such curve, though single readings can be large or run the other way. Some of the results follow.

experiment: Primary qHTS for Identification of Small Molecule Inhibitors of Huntingtin Promoter Activity; conditions: HEK293 HTT promoter firefly luciferase reporter (activity 0% = vehicle and -100% = no light), 24 h; series mostly up to 57.5 µM; activity change, negative = inhibition: at the top concentration; also: nearly all actives have a fitted effect of over 50% in size
In short: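 HEK293 Fluc reporter, 2,500 cells/well, 24 h pre-culture; cpds up to 57.5 uM final, 24 h 37 degrees C; Dual-Glo, 10 min RT; normalized vehicle = 0%, zero RLU = -100%.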
Potency is read from the fitted curve at half-maximal effect.

Row | SMILES | activity change, negative = inhibition | Potency
1 | CCNc1ncnc2c1nnn2C | inactive: -7.1% | –
2 | Cc1cccc(-c2nc3ccccc3n2Cc2ccccc2)c1 | inactive: -4.86% | –
3 | CCC(=O)Nc1ccccc1-c1nc2ccccc2n(CC(=O)c2ccc(Cl)cc2)c1=O | inactive: 62.5% | –
4 | Cc1ccc(S(=O)(=O)c2nnn3c2nc(NC(C)C)c2sccc23)cc1 | inactive: -27% | –
5 | Nc1c2c(nc3ccccc13)CCCC2O (stereo not given) | inactive: -1.93% | –
6 | COc1ccc2c(Sc3ccc(C)cc3)c(C(=O)NCc3ccc(F)cc3)[nH]c2c1 | inactive: -6.93% | –
7 | CN(C)C(=O)Oc1ccc[n+](C)c1 | inactive: 1.51% | –
8 | COc1ccccc1NC(=O)C1=C(C)Nc2nc(CCCO)nn2C1c1cccc(O)c1 (stereo not given) | inactive: -18.5% | –
9 | Nc1ccn([C@@H]2CS[C@H](CO)O2)c(=O)n1 | inactive: -1.34% [at 116 µM] | –
10 | O=C(Cn1cc(S(=O)(=O)N2CCCC2)c(S(=O)(=O)N2CCCC2)c1)Nc1ccccc1 | inactive: -5.7% | –
11 | O=C(Nc1cccc(NC(=O)c2ccccc2F)c1)c1ccccc1 | inactive: 12.1% | –
12 | Cn1c(=O)c(=O)n(C)c2cc(S(=O)(=O)N3CCN(c4ccc(F)cc4)CC3)ccc21 | inactive: -0.373% | –
13 | COc1cc(C2CC(=O)c3cnc(N4CCN(CCO)CC4)nc3C2)cc(OC)c1OC (stereo not given) | inactive: -26.5% | –
14 | CCCC(=O)Nc1cc(C(=O)NCc2ccccc2)ccc1S(=O)(=O)c1ccc(Cl)cc1 | inactive: 21.6% | –
15 | O=C(CSc1nc2c(oc3ccccc32)c(=O)n1-c1ccccc1)Nc1ccccc1F | inactive: -26.5% | –
16 | CC(C)c1ccc(NC(=O)CC2NCCNC2=O)cc1 (stereo not given) | inactive: 13.7% | –
17 | CCCc1cc(=O)[nH]c2nnc(SCCC(C)C)n12 | inactive: -15.5% | –
18 | COc1cc(NC(=O)CSc2ccc(-c3sc(-c4ccccc4)nc3C)nn2)cc(OC)c1 | inactive: 0.723% | –
19 | COc1ccc(CN2CCN(S(=O)(=O)c3ccccc3)CC2)c(OC)c1 | inactive: -29.2% | –
20 | CCCn1cc(S(=O)(=O)c2ccc(OC)cc2)c(=O)c2cc(F)c(N3CCCCCC3)cc21 | inactive: 5.06% | –
21 | Cc1ccc(CSc2nnc3[nH]c(=O)cc(C)n23)cc1 | inactive: 0.246% | –
22 | NC(=O)NNc1ccccc1 | inactive: -6.58% | –

Row | SMILES | activity change, negative = inhibition | Potency
23 | CN1Cc2c(N)cccc2C(c2ccccc2)C1 (stereo not given) | inactive: 6.22% | –
24 | CCCN1C(=O)C2(c3ccccc31)c1c(oc3cc(C)c(C)cc3c1=O)C(=O)N2CCCOC (stereo not given) | inactive: -14.2% | –
25 | CCC(=O)N1c2ccccc2CC1C(=O)NCCc1ccc(OC)cc1OC (stereo not given) | inactive: -11.8% | –
26 | Cc1c(C(=O)Nc2cccc(C(F)(F)F)c2)oc2ccc(S(=O)(=O)N(C)C3CCCCC3)cc12 | inactive: -6.9% | –
27 | CCNC(=O)c1ccc(-n2c(-c3ccccc3)cc3c2CCCCC3)cc1 | inactive: 7.76% | –
28 | COc1ccc(OC)c(NC(=O)[C@H](Cc2ccccc2)N2Cc3ccccc3C2=O)c1 | inactive: -12.8% | –
29 | COc1cccc(CNC(=O)CCc2c(C)nn(-c3ccc(N4CCOCC4)nn3)c2C)c1 | inactive: 12.9% | –
30 | CC(=O)Nc1nonc1-c1nnc(SCc2ccc(C)cc2)n1C | inactive: -0.993% | –
31 | CCOC(=O)CNc1ncnc2c1nnn2C | inactive: -8.39% | –
32 | CCCNC(=O)c1c2c(nc3ccccc13)C(=O)N(C1CCCCC1)C2 | inactive: -3.96% | –
33 | CCCc1cc(=O)[nH]c2nnc(SCC(=O)Nc3cccc(C)c3)n12 | inactive: -8.41% | –
34 | Cc1cccn2c(=O)c(/C=C(\C#N)c3nc4ccccc4n3C)c(Oc3ccc(Cl)cc3)nc12 | inactive: -5.46% | –
35 | COc1cccc(-c2cc(C(=O)Nc3ccc(F)cc3)[nH]n2)c1 | inactive: 2.27% | –
36 | CCOc1cc(-c2nnc(SCC(=O)NCc3ccc(C)cc3)nc2-c2ccc(OC)c(OCC)c2)ccc1OC | inactive: -11.3% | –
37 | COc1ccc(OC)c(NC(=O)c2nc(SCc3ccccc3F)ncc2Cl)c1 | inactive: -4.15% | –
38 | COc1cccc(NC(=O)C2CCCN2S(=O)(=O)c2ccc3c(c2)n(C)c(=O)c(=O)n3C)c1 (stereo not given) | inactive: -0.686% | –
39 | CCc1cccc(-n2c(=O)c3cccnc3n2CC(=O)Nc2ccccc2C(=O)OC)c1 | inactive: -6.68% | –
40 | CCOc1ccc(NC(=O)c2ccc3nc(Cc4ccccc4)oc3c2)cc1 | inactive: -28% | –
41 | Cc1ccc2oc(C(=O)Nc3sc4c(c3C(=O)NCc3ccccc3)CCCC4)cc(=O)c2c1 | inactive: 5.58% [at 11.5 µM] | –
42 | Cc1ccccc1NC(=O)N1CCC(CN2CCCC2)CC1 | inactive: -11.6% | –
43 | Cc1ccc(OCC(=O)OCc2cc(=O)n3c(C)csc3n2)cc1 | inactive: -23.3% | –
44 | COc1ccc(-n2nc3cc(C)c(NC(=O)c4ccc(C)cc4C)cc3n2)cc1Cl | inactive: 7.35% | –

Row | SMILES | activity change, negative = inhibition | Potency
45 | N#CC1=C2SCN(C3CCCCC3)CN2C(=O)CC1c1ccc(F)cc1 (stereo not given) | inactive: -11.1% | –
46 | Nc1ccc(C(=O)OCC(O)CO)cc1 (stereo not given) | inactive: 0.992% | –
47 | CCC(=O)N1CCc2cc(S(=O)(=O)NC(Cc3ccccc3)C(=O)NCc3ccc(F)cc3)ccc21 (stereo not given) | inactive: -14.7% | –
48 | O=C(CSc1nc2c([nH]c3ccccc32)c(=O)n1-c1ccccc1)Nc1ccccc1F | inactive: -18.1% | –
49 | O=C(CCn1cnnn1)Nc1ccccc1 | inactive: -3.73% | –
50 | COc1ccc(C(=O)Nc2cccc(-c3nc4cccnc4s3)c2C)c(OC)c1 | inactive: -0.29% | –
51 | CCOC(=O)c1ccccc1NC(=O)Cn1c(=O)n(Cc2ccc(C(=O)NCc3ccc4c(c3)OCO4)cc2)c(=O)c2ccccc21 | inactive: -11.8% | –
52 | CCOc1ccc(NC(=O)C2CCCN(S(=O)(=O)c3ccc(Br)s3)C2)cc1 (stereo not given) | inactive: -2.59% | –
53 | Cc1cccc(C(=O)NC(=O)Nc2ccc(-n3nc(C(F)(F)F)cc3C(F)(F)F)cc2)c1 | inactive: -19.7% | –
54 | CCOc1cc(Br)c(C2C(C(=O)OC)=C(C)NC3=C2C(=O)c2ccccc23)cc1OCC (stereo not given) | inactive: -32.8% | –
55 | COCCCNC(=O)C1CCN(c2ncnc3c2nc2n3CCCCC2)CC1 | inactive: -7.3% | –
56 | COc1ccc(-c2nc(C)c(CCNC(=O)c3ccccc3Br)s2)cc1OC | inactive: 8.5% | –
57 | Cc1c2cnn(CC(=O)NCc3ccc(F)cc3)c(=O)c2c(C)n1Cc1ccccc1Cl | inactive: -24.6% | –
58 | COc1cccc(Cn2cnc3c2c(=O)n(C)c(=O)n3C)c1 | – | active: 14.1 µM
59 | CC(=O)N1CCCc2cc(S(=O)(=O)N3CCC(N(C)C(C)C)CC3)ccc21 | inactive: -6.77% | –
60 | Cc1nc2c(C(=O)NCCC(C)C)cnn2c(C)c1Cc1c(F)cccc1Cl | inactive: -10.9% | –
61 | CCC(C)NC(=O)C1CCN(S(=O)(=O)c2ccc3c(ccn3CC)c2)CC1 (stereo not given) | inactive: -19.2% | –
62 | COc1cccc2sc(N(Cc3cccnc3)C(=O)c3ccc(S(=O)(=O)N(C)C)cc3)nc12 | inactive: -19.8% | –
63 | O=C(O)c1ccccc1NC(=O)N1c2ccccc2Sc2ccccc21 | inactive: -7.5% | –
64 | CCOC(=O)C1CCCN(C(=O)C2CCN(S(=O)(=O)c3c(C)noc3/C=C/c3ccc(C)cc3)CC2)C1 (stereo not given) | inactive: -12.8% | –
65 | CC1CCCN(Cc2c(O)ccc3c(=O)c(-c4ccc(Cl)cc4)c(C(F)(F)F)oc23)C1 (stereo not given) | inactive: -3.93% | –
